Reference: paper PMC12820563
The list shows a part of the results. The list includes weakly bound sequences.

What follows are sequences tested against T1, MBP-FoxP3dN (UniProt Q99JB6) (assay: PD-seq (MBP pull-down with sequencing)). Details: 20 mM Tris-HCl pH 7.5, 100 mM NaCl, 1.5 mM MgCl2, 0.4 uM protein, 0.1 uM dsDNA library, 30 min, room temperature, amylose pull-down; high values mean tight binding; double strand, one strand shown.
T1 sequence: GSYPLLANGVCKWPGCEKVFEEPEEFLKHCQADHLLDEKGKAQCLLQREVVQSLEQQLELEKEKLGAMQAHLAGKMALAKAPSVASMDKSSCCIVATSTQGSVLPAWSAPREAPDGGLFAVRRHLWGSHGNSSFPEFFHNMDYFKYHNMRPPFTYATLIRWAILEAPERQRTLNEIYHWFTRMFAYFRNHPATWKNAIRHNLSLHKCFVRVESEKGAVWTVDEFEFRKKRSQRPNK

Q: For “GATGATTGTTCTCCCAGCTGATGAATTAAGAACATCGAGTAAACAAATTTTCCTAATCTTTCTGTTCAAGCGCCATCTAC”, which binding signal (RPM ratio (pull-down/input)) is on record?
A: 0.337

Q: “GATGATTGTTCTCCCAGCTGATGAATTGACTGTATCGAGTAAACAAATTTTCCTAATCTTTCTGTTCAAGCGCCATCTAC” was tested. Which binding signal (RPM ratio (pull-down/input)) did it give?
A: 0.645

Q: “GATGATTGTTCTCCCAGCTGATGAATTTCGCTAGTCGAGTAAACAAATTTTCCTAATCTTTCTGTTCAAGCGCCATCTAC” was tested. Which binding signal (RPM ratio (pull-down/input)) did it give?
A: 1.24

Q: “GATGATTGTTCTCCCAGCTGATGAATTTTCACACTCGAGTAAACAAATTTTCCTAATCTTTCTGTTCAAGCGCCATCTAC” was tested. Which binding signal (RPM ratio (pull-down/input)) did it give?
A: 0.309

Q: “GATGATTGTTCTCCCAGCTGATGAATTCAGTTGATCGAGTAAACAAATTTTCCTAATCTTTCTGTTCAAGCGCCATCTAC” was tested. Which binding signal (RPM ratio (pull-down/input)) did it give?
A: 2.08

Q: How did the binding signal (RPM ratio (pull-down/input)) turn out when “GATGATTGTTCTCCCAGCTGATGAATTCTGGAGGTCGAGTAAACAAATTTTCCTAATCTTTCTGTTCAAGCGCCATCTAC” was run?
A: 0.216

Q: With “GATGATTGTTCTCCCAGCTGATGAATTTGAGGCATCGAGTAAACAAATTTTCCTAATCTTTCTGTTCAAGCGCCATCTAC” as the sequence, how does the binding signal (RPM ratio (pull-down/input)) read?
A: 0.877

Q: With “GATGATTGTTCTCCCAGCTGATGAATTTATCTCGTCGAGTAAACAAATTTTCCTAATCTTTCTGTTCAAGCGCCATCTAC” as the sequence, how does the binding signal (RPM ratio (pull-down/input)) read?
A: 0.555

Q: Which binding signal (RPM ratio (pull-down/input)) does the source give for “GATGATTGTTCTCCCAGCTGATGAATTAATTCTATCGAGTAAACAAATTTTCCTAATCTTTCTGTTCAAGCGCCATCTAC” here?
A: 0.275

Q: “GATGATTGTTCTCCCAGCTGATGAATTTTCCCACTCGAGTAAACAAATTTTCCTAATCTTTCTGTTCAAGCGCCATCTAC” was tested. Which binding signal (RPM ratio (pull-down/input)) did it give?
A: 0.213

Q: For “GATGATTGTTCTCCCAGCTGATGAATTACATTATTCGAGTAAACAAATTTTCCTAATCTTTCTGTTCAAGCGCCATCTAC”, which binding signal (RPM ratio (pull-down/input)) is on record?
A: 0.967

Q: How did the binding signal (RPM ratio (pull-down/input)) turn out when “GATGATTGTTCTCCCAGCTGATGAATTAGGAGAGTCGAGTAAACAAATTTTCCTAATCTTTCTGTTCAAGCGCCATCTAC” was run?
A: 0.256

Q: Which binding signal (RPM ratio (pull-down/input)) does the source give for “GATGATTGTTCTCCCAGCTGATGAATTCGTATTCTCGAGTAAACAAATTTTCCTAATCTTTCTGTTCAAGCGCCATCTAC” here?
A: 2.07

Q: Which binding signal (RPM ratio (pull-down/input)) does the source give for “GATGATTGTTCTCCCAGCTGATGAATTCTTGTAATCGAGTAAACAAATTTTCCTAATCTTTCTGTTCAAGCGCCATCTAC” here?
A: 0.734

Q: Which binding signal (RPM ratio (pull-down/input)) does the source give for “GATGATTGTTCTCCCAGCTGATGAATTAATGAGATCGAGTAAACAAATTTTCCTAATCTTTCTGTTCAAGCGCCATCTAC” here?
A: 0.246

Q: How did the binding signal (RPM ratio (pull-down/input)) turn out when “GATGATTGTTCTCCCAGCTGATGAATTGAAGTCATCGAGTAAACAAATTTTCCTAATCTTTCTGTTCAAGCGCCATCTAC” was run?
A: 0.441

Q: “GATGATTGTTCTCCCAGCTGATGAATTGACAAACTCGAGTAAACAAATTTTCCTAATCTTTCTGTTCAAGCGCCATCTAC” was tested. Which binding signal (RPM ratio (pull-down/input)) did it give?
A: 0.755

Q: For “GATGATTGTTCTCCCAGCTGATGAATTAACATACTCGAGTAAACAAATTTTCCTAATCTTTCTGTTCAAGCGCCATCTAC”, which binding signal (RPM ratio (pull-down/input)) is on record?
A: 0.486

Q: Which binding signal (RPM ratio (pull-down/input)) does the source give for “GATGATTGTTCTCCCAGCTGATGAATTAGCCAATTCGAGTAAACAAATTTTCCTAATCTTTCTGTTCAAGCGCCATCTAC” here?
A: 0.326

Q: For “GATGATTGTTCTCCCAGCTGATGAATTGAAAAGTTCGAGTAAACAAATTTTCCTAATCTTTCTGTTCAAGCGCCATCTAC”, which binding signal (RPM ratio (pull-down/input)) is on record?
A: 0.16

Q: For “GATGATTGTTCTCCCAGCTGATGAATTTAAGATGTCGAGTAAACAAATTTTCCTAATCTTTCTGTTCAAGCGCCATCTAC”, which binding signal (RPM ratio (pull-down/input)) is on record?
A: 0.373

Q: Which binding signal (RPM ratio (pull-down/input)) does the source give for “GATGATTGTTCTCCCAGCTGATGAATTCCGTCTCTCGAGTAAACAAATTTTCCTAATCTTTCTGTTCAAGCGCCATCTAC” here?
A: 0.992

Q: With “GATGATTGTTCTCCCAGCTGATGAATTCGGCAGGTCGAGTAAACAAATTTTCCTAATCTTTCTGTTCAAGCGCCATCTAC” as the sequence, how does the binding signal (RPM ratio (pull-down/input)) read?
A: 0.539

Q: With “GATGATTGTTCTCCCAGCTGATGAATTCGTTGTCTCGAGTAAACAAATTTTCCTAATCTTTCTGTTCAAGCGCCATCTAC” as the sequence, how does the binding signal (RPM ratio (pull-down/input)) read?
A: 4.96

Q: With “GATGATTGTTCTCCCAGCTGATGAATTACTCAGTTCGAGTAAACAAATTTTCCTAATCTTTCTGTTCAAGCGCCATCTAC” as the sequence, how does the binding signal (RPM ratio (pull-down/input)) read?
A: 0.296

Q: “GATGATTGTTCTCCCAGCTGATGAATTAGATAACTCGAGTAAACAAATTTTCCTAATCTTTCTGTTCAAGCGCCATCTAC” was tested. Which binding signal (RPM ratio (pull-down/input)) did it give?
A: 0.358

Q: How did the binding signal (RPM ratio (pull-down/input)) turn out when “GATGATTGTTCTCCCAGCTGATGAATTGCGGGGCTCGAGTAAACAAATTTTCCTAATCTTTCTGTTCAAGCGCCATCTAC” was run?
A: 0.665

Q: Which binding signal (RPM ratio (pull-down/input)) does the source give for “GATGATTGTTCTCCCAGCTGATGAATTATTGCTATCGAGTAAACAAATTTTCCTAATCTTTCTGTTCAAGCGCCATCTAC” here?
A: 1.25

Q: Which binding signal (RPM ratio (pull-down/input)) does the source give for “GATGATTGTTCTCCCAGCTGATGAATTTAAAGTCTCGAGTAAACAAATTTTCCTAATCTTTCTGTTCAAGCGCCATCTAC” here?
A: 0.356

Q: “GATGATTGTTCTCCCAGCTGATGAATTCGAAGGGTCGAGTAAACAAATTTTCCTAATCTTTCTGTTCAAGCGCCATCTAC” was tested. Which binding signal (RPM ratio (pull-down/input)) did it give?
A: 0.259

Q: With “GATGATTGTTCTCCCAGCTGATGAATTCACTGGTTCGAGTAAACAAATTTTCCTAATCTTTCTGTTCAAGCGCCATCTAC” as the sequence, how does the binding signal (RPM ratio (pull-down/input)) read?
A: 0.354

Q: With “GATGATTGTTCTCCCAGCTGATGAATTCGGTAATTCGAGTAAACAAATTTTCCTAATCTTTCTGTTCAAGCGCCATCTAC” as the sequence, how does the binding signal (RPM ratio (pull-down/input)) read?
A: 0.998
